# In PubChem BioAssay (NCI):
# Values joined by “and” are separate entries in the source; they are usually repeats but may differ in a detail not shown here. Identical values can stand only once.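 These data come from cells grown in 96-well plates and exposed to compound for 48 hours at five concentrations. The concentration for 50% growth inhibition is given as GI50. TGI: total growth inhibition.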
# Test system: NCI-H322M lung
# Experiment: growth of human tumour cells (NCI), 48 h
SMILES,GI50,TGI
CN1C=CN(Cc2ccc(-c3ccccn3)nc2)[CH-]1.CN1C=CN(Cc2ccc(-c3ccccn3)nc2)[CH-]1.[Au+3],3.81 µM,> 43 µM
O=C(n1c(=O)n(-c2ccc([N+](=O)[O-])cc2)c(=O)n1C(=O)C(Cl)(Cl)Cl)C(Cl)(Cl)Cl,,> 100 µM
COCCOCCOCCOCCOc1ccc2c(c1)C(=O)c1nc3ncccc3c(=O)n1-2,0.546 µM,1.73 µM
O=C(O)CCN1C(=O)/C(=C/C(Cl)=C/c2ccccc2)SC1=S,4.26 µM,16 µM
COc1cc(Nc2ncc(-c3ccccc3)o2)cc(OC)c1OC,1.78 µM,> 25 µM
N#Cc1nc(Cc2cccs2)oc1N,,> 100 µM
COCCOC(=O)CCn1cc(F)c(=O)[nH]c1=O,7.87 µg/mL,> 150 µg/mL
Cc1nc(Nc2ccc([N+](=O)[O-])cc2)sc1C(=O)/C=C/c1ccc(N(C)C)cc1,,> 100 µM
CCCS(=O)OC1C(C2COC(C)(C)O2)OC2OC(C)(C)OC21 (stereo not drawn),,37.7 µM
CC(C)(C)c1ccc(C(O)(c2ccc(C(C)(C)C)cc2)c2ccc(C(C)(C)C)cc2)cc1,,> 100 µM
CC(C)S(=O)(=O)n1c(N)nc2ccc(/C(=N/O)c3ccccc3)cc21,,47.8 µM
C/C(=N\n1c(N)c(C#N)c(-c2ccc(Cl)cc2)c(C#N)c1=O)c1cccnc1,> 100 µM,> 100 µM
CC(C)(CN1CCCCC1)C(=O)CC(SCCS(=O)(=O)O)c1ccc(Cl)c(Cl)c1 (stereo not drawn),,21.6 µM
Cc1nc(-c2ccc(Cl)cc2)cn2c1nc1ccccc12,,> 100 µM
C[C@@H]1CC[C@H]2C(CN3CCN(CC4=C(C(F)(F)F)O[C@@H]5O[C@@]6(C)CC[C@H]7[C@H](C)CC[C@@H]4[C@@]57OO6)CC3)=C(C(F)(F)F)O[C@@H]3O[C@@]4(C)CC[C@@H]1[C@]32OO4,41.4 µM,> 100 µM
c1ccc(CN(Cc2ccccn2)Cn2cccn2)nc1,,> 100 µM
CCOC(=O)c1cc2cc([N+](=O)[O-])ccc2oc1=O,,> 100 µM
NC(=S)NS(=O)(=O)c1ccc(Cl)cc1Cl,,> 100 µM
Cc1ccc(N=Nc2cc(=O)[nH]c(=O)[nH]2)cc1C,,31.9 µM
c1csc(-c2csc(-c3cccs3)c2)c1,,> 100 µM
NC(=NC1C2CC3CC(C2)CC1C3)Nc1ccc(I)cc1 (stereo not drawn),3.6 µM,14.8 µM
C/C(=N\N=C(N)N)c1sc(-c2nc(C)c(/C(C)=N/N=C(N)N)s2)nc1C,,> 100 µM
CCOC(=O)c1c(C)n(CCN2CCN(C)CC2)c2ccc(OC)cc12,,> 100 µM
COS(=O)CCOC(=O)c1ccccc1SSc1ccccc1C(=O)OCCS(=O)OC (stereo not drawn),,> 100 µM
O=C(O)c1oc2ccc([N+](=O)[O-])c3c2c1CCC3,,> 100 µM
CC1=CC(=O)c2[nH]c3ccccc3c2C1=O,,> 25 µM

SMILES,GI50,TGI
COC(=N)/C(=C1\OC(N)=C(c2ccc(Cl)cc2)C1=O)c1ccc(Cl)cc1,,> 100 µM
CCSc1nn(-c2c3ccccc3nc3ccccc23)c(=S)s1,,> 100 µM
Cc1nc2ccccc2n1CCc1nc2ccccc2[nH]1,,> 100 µM
C[N+](C)(C)c1nc(N)nc2c1ncn2C1OC(CO)C(O)C1O (stereo not drawn),,> 100 µM
OCC(O)C(OC1OC(CO)C(O)C(O)C1O)c1nn(-c2ccc(F)cc2)c2nc3cc(Cl)c(Cl)cc3cc12 (stereo not drawn),,> 100 µM
Oc1cc(Br)cc2cc(Br)cnc12,,> 100 µM
COc1cc([N+](=O)[O-])c2ncccc2c1O,2.2 µM,5.58 µM
COc1ccc(N2C(=O)CSC2c2cc(OC)c(OC)c(OC)c2)cc1 (stereo not drawn),,> 100 µM
Cc1cc(=O)[nH]c(S(=O)(=O)NC(=S)Nc2ccc(Br)cc2)n1,,> 100 µM
Cc1[nH]nc(C(=O)N/N=C/c2cccs2)c1N=NN(C)C,,89.8 µM
O=C(/C=C/c1cccs1)Nc1ncc(Cc2ccccc2F)s1,0.612 µM,> 100 µM
Cc1ccc(NC(=O)NC23CC4CC(CC(F)(C4)C2)C3)cc1,,> 100 µM
CCc1ccc(/C=C2/SC(=S)NC2=O)cc1,27.8 µM,> 100 µM
O=C1C=Cc2noc3cccc1c23,,29.7 µM
O=c1c2cc(Cl)ccc2n2nnc3ccc(NCCNCCO)c1c32,,2.57 µM
CC(C)(C)OC(=O)N[C@@H](Cc1ccccc1)C(=O)N1CC[C@@H](C(=O)N2[C@H]3CC4CC[C@@]3(CS2(=O)=O)C4(C)C)N1,,> 100 µM
O=C(O)c1c(Cl)c(Cl)c(Cl)c(Cl)c1-c1c2cc(I)c(=O)c(I)c-2oc2c(I)c(O)c(I)cc12,39.9 µM,111 µM
O=C(O)C1C2CC3CC2CC31 (stereo not drawn),,> 100 µM
C1CN(C23OC4(N5CCOCC5)C5C6CC(C7C6C4C72)C53)CCO1 (stereo not drawn),,> 100 µM
S=C1OC2C3C4CC5C3C(O1)C1C5C4C21 (stereo not drawn),,> 100 µM
COc1ccc(/C(Cl)=C(\C=O)c2ccc(Cl)cc2)cc1,,32.2 µM
O=c1c2c(=NCCCN3CCCC3)cc3c(=O)n(CCCN4CCCC4)c(=O)c4c(NCCCN5CCCC5)cc(c(O)n1CCCN1CCCC1)c2c4-3,3.1 µM,9.69 µM
Cc1cccc(/C=N/NC(=S)NC(C)(C)C)n1,,> 100 µM
Cc1ccc(Oc2cc(C)ccc2P(=O)(O)O)cc1,,> 100 µM
CN(c1ccccc1)c1c(-c2ccccc2)c(=O)oc2c1ccc1occc12,,> 100 µM
COc1ccc2c3c([nH]c2c1)[C@H]1C[C@H]2[C@H](C[C@@H](O)[C@H](OC)[C@H]2C(=O)O)CN1CC3,,> 100 µM

SMILES,GI50,TGI
CC1Oc2c(c(O)cc3oc(=O)cc(-c4ccccc4)c23)C(=O)C1C (stereo not drawn),,> 100 µM
C1CCN2CC34CC(CC5CCCN(C6CCCC3N6)C54)C2C1 (stereo not drawn),,> 100 µM
CCn1cc(C2NC(=O)c3cc(F)ccc3N2)c2cccc(Cl)c21 (stereo not drawn),0.621 µM,> 100 µM
Cc1cc(C(=O)NCCN(C)C)c2nc3ccccc3nc2c1,,35.2 µM
CC(=O)N/N=C1\NN(C(C)=O)C2(S1)C(=O)Nc1ccccc12 (stereo not drawn),,> 100 µM
COc1cc(C=NCC(=O)CSC(c2ccccc2)c2ccccc2)cc(OC)c1OC,24.9 µM,> 100 µM
COc1ccc(-c2nc(N)nc(-c3cc(C)ccc3O)c2Cl)cc1,,> 100 µM
Cc1cc(I)cc(CN(C)CCCCN2CCCC2)c1O,28.4 µM,> 100 µM
O=C1C(=O)C(CCCO)(CCCO)CCCCCCCCC1(CCCO)CCCO,,> 100 µM
C=C1C(=O)OC2C1CC1OC2C(C)CCC/C(C)=C\CCC1(C)O (stereo not drawn),,84 µM
COC(=O)[C@]12CCC(=O)N1[C@H](C(=O)O)Cc1c2[nH]c2ccccc12,,> 100 µM
C=C1C(=O)O[C@H]2[C@H](OC(C)=O)[C@@H](C)CCC/C(C)=C/CC[C@]3(CO3)[C@H](O)C[C@@H]12,18.2 µM,40.8 µM
Cc1ccc(Nc2ccnc(Nc3cccc(C(N)=O)c3)n2)cc1O,2.33 µM,> 25 µM
C=C(C)[C@@H]1CC[C@]2(C#N)CC[C@]3(C)[C@H](CC[C@@H]4[C@@]5(C)CCCNC(C)(C)[C@@H]5CC[C@]43C)[C@@H]12,1.89 µM,3.66 µM
COc1ccccc1OCC(COC(=O)Nc1ccc(C)cc1)OC(=O)Nc1ccc(C)cc1 (stereo not drawn),,> 100 µM
N#CC(/C(=N\NC(N)=S)C(=O)NC1C2CC3CC(C2)CC1C3)c1ccc(Cl)cc1 (stereo not drawn),,> 100 µM
O=C(NC(Cc1c[nH]c2ccccc12)C(=O)O)/C(=C/c1ccccc1)NC(=O)c1ccccc1 (stereo not drawn),,> 100 µM
COc1cc2c(cc1OCc1ccccc1)NC(=O)[C@@H]1C[C@@H](O)CN1C2=O,,> 100 µM
O=C1CCC(c2ccccc2)(c2ccccc2)CC1,,> 100 µM
CN(NC(=O)/C(=C/C=C/c1ccccc1)NC(=O)c1ccccc1)C1=C(Cl)C(=O)[N+](c2ccccc2)=CC1,,> 100 µM
Fc1ccc(-c2c(-c3ccncc3)n(CCN3CCOCC3)c3cccnc23)cc1,> 25 µM,> 25 µM
CC(C)=CCC/C(C)=C/CCC1(C)C2COC(=O)C21 (stereo not drawn),,> 100 µM
Cc1cccc(-c2cc(=O)c3c(C)ccnc3[nH]2)c1,,> 100 µM
O=C1CCCC2COc3ccc(O)c1c32 (stereo not drawn),,> 100 µM
C=C1C(=O)O[C@H]2[C@@H](O)[C@H](C)CCC/C(C)=C/CC[C@@]3(C)O[C@@H]3C[C@@H]12,,28.9 µM
CC(=O)Nc1[nH]c(=O)[nH]c(=O)c1N(C(C)=O)C(C)=O,,> 100 µM

SMILES,GI50,TGI
C#Cc1ccccc1C(=O)OC,,> 100 µM
CC12CC(=O)NN=C1c1ccccc1C2 (stereo not drawn),,> 100 µM
Nc1ncnc2c(C3OC(CO)C(O)C3O)c[nH]c12 (stereo not drawn),0.0165 µM,0.327 µM and 1.22 µM
CC[N+]1(C)CCC(O)(/C=C/c2ccc(Cl)c(Cl)c2)C(C(=O)/C=C/c2ccc(Cl)c(Cl)c2)C1 (stereo not drawn),,20.4 µM
COc1cccc2c1C(=O)c1c(O)c3c(c(O)c1C2=O)C[C@](O)(C(=O)CO)CC3OC1CC(N)C(OC2CCCCO2)C(C)O1 (stereo partly drawn),,5.73 µM
O=C(O)C(O)C(O)C1[O][Sb][O]C1CO (stereo not drawn),> 100 µM,> 100 µM
Cc1ccc(C)c(NC(=O)CCc2n[nH]c(=S)o2)c1,,> 100 µM
O=c1[nH]nc(Cc2ccc([N+](=O)[O-])cc2)[nH]1,,> 100 µM
CCCCC[C@@H]1OC(=O)[C@@]2(CC3c4ccccc4C2c2ccccc23)[C@H]1C(=O)OC,,> 100 µM
Cc1cc2nnn(C3CCCO3)c2cc1C (stereo not drawn),,> 100 µM
COc1cc(C(=O)c2c(-c3ccccc3)oc3ccccc23)cc(OC)c1O,4.44 µM,26.4 µM
O=C(O)CNS(=O)(=O)c1ccc(NC(=O)c2cccc([N+](=O)[O-])c2)cc1,,> 100 µM
OCC1CC2CC1C1(C2)OCCO1 (stereo not drawn),,> 100 µM
CC(C)c1cc2c(O)c(c1)Cc1cc(C(C)C)cc(c1O)Cc1cc(C(C)C)cc(c1O)Cc1cc(C(C)C)cc(c1O)Cc1cc(C(C)C)cc(c1O)Cc1cc(C(C)C)cc(c1O)C2,,> 100 µM
CCNC1=CC(=O)c2ncccc2C1=O,1.55 µM,2.95 µM
CCC[CH2][Ge]([CH2]CCC)([CH2]CCC)[O]C(=O)CCl,3.56 µM,19 µM
COc1ccc(/C=C/CO)cc1OC,,> 100 µM
CC(C)=CCC[C@](C)(O)[C@H]1CC[C@]2(C)[C@@H]1CC[C@@H]1[C@@]3(C)CC[C@H](OC(=O)CCC(=O)O)C(C)(C)[C@@H]3CC[C@]12C,21.8 µM,86.6 µM
O=[N+]([O-])C(=C(c1ccccc1)c1ccccc1)[N+](=O)[O-],,31.3 µM
Clc1cccc(Cl)c1C1ON=C(c2ccccc2)N1C12CC3CC(CC(C3)C1)C2 (stereo not drawn),,> 100 µM
CC(CN(C)C)C(O)(c1ccccc1)c1ccccc1 (stereo not drawn),,> 100 µM
CCOC(=O)Cn1c(C)nc2nn(Cc3ccccc3)cc2c1=O,,> 100 µM
N#CCc1nc2c(s1)C(=O)c1ccccc1C2=O,,62.1 µM
NC(=O)Nc1n[nH]c(-c2ccccc2)n1,,> 100 µM
